Data on 48 molecules can be found in PubChem BioAssay AID1963576 (National Center for Advancing Translational Sciences (NCATS), 2024).

The campaign covered roughly 46,000 compounds. About 60 (0.1%) were called active. Inconclusive results (about 3%) are left out. The call rests on the fitted dose curve; in most records, active means well fitted inhibition curve with a large enough effect; inconclusive means small, poorly fitted or top-dose-only effect; inactive means no such curve, though single readings can be large or run the other way. Some of the results follow.

The assay in a line: Primary qHTS assay for Inhibitors of ovarian cancer metastasis using an organotypic tumor microenvironment (TME) model. Further: nearly all actives have a fitted effect of over 65% in size.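 On activity change, negative = inhibition: plate controls were DMSO wells for no effect and tomatine positive control wells for full effect.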 Particulars: SKOV3ip1-GFP adhesion/invasion on 3D omental model, fluorescence; series mostly up to 45.8 µM; activity change, negative = inhibition: at the top concentration. The essentials: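 Primary human omental fibroblast/mesothelial 3D culture pre-formed 48 h. SKOV3ip1-GFP cells added with compounds (0.36-46 umol/L), incubated 2 h RT/16 h 37 C, fixed; GFP cells quantified at 488/509 nm.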
In general terms: In qHTS, concentration-response curves come from the screen itself.
Regarding `Cc1ccc(Cl)cc1N1CCN(C(=O)c2ccc3c(c2)N(Cc2ccc(F)cc2)CCS3)CC1`, the “activity change, negative = inhibition” value is inactive: 19.8%. In the case of `CCOc1cc(CNC(=O)c2ccc3c(c2)NC(=O)C2CCCCN32)cc(OCC)c1OCC` (stereo not drawn), the “activity change, negative = inhibition” value is inactive: 7.89%. As for `CCOC(=O)c1[nH]c(C)c(CCC(=O)Nc2cc(C)ccc2OC)c1C`, the “activity change, negative = inhibition” value is inactive: 4.22%. For the molecule `COc1ccc(-c2c3c(=O)n(C)c(=O)n(C)c3c3n2-c2ccccc2NC3c2ccco2)cc1` (stereo not drawn), the “activity change, negative = inhibition” value was inactive: 5.37%. On to `CCOc1ccc(CCNC(=O)Cn2nc(CC)n3c(cc4ccccc43)c2=O)cc1`, for which the “activity change, negative = inhibition” value is inactive: -4.33%. With `CCc1ccccc1NC(=O)c1cnc(N2CCCCC2)c2ccccc12`, the molecule was called inactive. With `Cc1cc(=O)n(CC(=O)N2CCN(c3ccccc3F)CC2)c2c1c(C)nn2C`, the “activity change, negative = inhibition” value is inactive: -8.01%. As to `COc1cc(C(=O)NCC(c2cccs2)S(=O)(=O)c2cccs2)cc(OC)c1OC` (stereo not drawn), the “activity change, negative = inhibition” value is inactive: -0.627%. As to `CN(Cc1ccccc1)C(=O)c1ccc2c(c1)N(Cc1ccccc1Cl)C(=O)c1ccccc1S2`, the result was inactive.

As to `O=C(CCn1c(=O)c2cccn2c2cccnc21)NCc1ccc(F)cc1`, the “activity change, negative = inhibition” value was inactive: -0.181%. For `Fc1ccc(-c2noc3ncnc(NCc4ccc(Cl)cc4)c23)cc1`, the “activity change, negative = inhibition” value was inactive: 0.159%.

In the case of `CCOc1ccc(CCNC(=O)C2=C(C)C(=O)OC23CCCCC3)cc1`, the molecule was classed as inactive.

For `CCC(Sc1nc(-c2ccccc2F)nc2c1Cc1c(CO)cnc(C)c1O2)C(=O)Nc1cc(C)ccc1C` (stereo not drawn), the “activity change, negative = inhibition” value is inactive: 7.56%. As for `CCN1C(=O)c2ccccc2S(=O)c2ccc(C(=O)N3CCN(c4cc(Cl)ccc4C)CC3)cc21` (stereo not drawn), the molecule was called inactive. `Cc1ccccc1CN1CCC(CNC(=O)c2c(C)oc3ncnc(N4CCCCC4)c23)CC1`: the “activity change, negative = inhibition” value is inactive: 0.693%. Same read-out and setting: for `COc1ccc(C(=O)NC2(C(F)(F)F)C(=O)Nc3c2c(=O)[nH]c(=O)n3CCc2ccc(OC)c(OC)c2)cc1` (stereo not drawn) the value was inactive: 28.5%. Still for that read-out and setting: for `CCOC(=O)C1CCN(S(=O)(=O)c2ccc3c(c2)N(C)C(=O)CC(=O)N3C)CC1` the value was inactive: 1.43%; for `COc1cc(C2CC(=O)Oc3c2c(=O)n(C)c2ccccc32)ccc1O` (stereo not drawn), inactive: 4.7%. Take `Cc1ccc(Cl)cc1N1CCN(C(=O)c2ccc(CS(=O)(=O)c3ccccc3C)o2)CC1`: the “activity change, negative = inhibition” value is inactive: -18.3%.

Take `Cc1cc(C)c2oc(-c3cccc(NC(=O)COc4ccc([N+](=O)[O-])cc4)c3)nc2c1`: the molecule was called inactive.

`Cc1ccc(NC(=O)Cn2c(=O)n(CC3CCCO3)c(=O)c3ccccc32)cc1` (stereo not drawn): the “activity change, negative = inhibition” value was inactive: -9.85%. For the molecule `CCOC(=O)c1c(C)[nH]c(C)c1S(=O)(=O)N(C)CC(=O)Nc1ccc(C)cc1C`, the “activity change, negative = inhibition” value is inactive: 10.7%. `O=C(COc1ccccc1)Nc1ccc2nc(SCCOc3ccccc3)sc2c1`: the “activity change, negative = inhibition” value is inactive: 5.04%.

Regarding `CC(=O)SCC(Cc1ccccc1)C(=O)NCC(=O)OCc1ccccc1` (stereo not drawn), the “activity change, negative = inhibition” value is inactive: 17.5%. For the molecule `CCc1ccc(CNC(=O)C2CCN(c3nn4cc(-c5ccc(F)cc5)nc4s3)CC2)cc1`, the call was inactive.

As to `Cn1nc(C(=O)Nc2ccc(F)c(Cl)c2)c2c1-c1ccccc1S(=O)(=O)C2`, the “activity change, negative = inhibition” value is inactive: 1.92%. As to `CCOc1cc2[nH]c(=O)n(Cc3ccc(C(=O)N4CCN(c5cccc(Cl)c5)CC4)cc3)c(=O)c2cc1OCC`, the “activity change, negative = inhibition” value is inactive: -3.69%. With `COc1cc(C2NC(=O)c3c(sc4c3CCN(C)C4)N2)cc(OC)c1OC` (stereo not drawn), the “activity change, negative = inhibition” value is inactive: 7.13%.

As to `CC(=O)CSc1nnc2[nH]c(=O)cc(N)n12`, the “activity change, negative = inhibition” value was inactive: 8.33%. `Cc1cccc(-c2nnc(C3CCN(S(=O)(=O)c4cccc(Cl)c4)CC3)o2)c1`: the “activity change, negative = inhibition” value was inactive: -3.19%. Regarding `CCOC(=O)c1c(C)c(-c2ccccc2)n(CC(=O)NC2CCCCC2)c1C`, the “activity change, negative = inhibition” value was inactive: -6.98%. On to `COc1ccc(Br)cc1CN1C(=O)c2ccccc2C1C(=O)NC1CCCCCC1` (stereo not drawn), for which the “activity change, negative = inhibition” value is inactive: -27%.

Consider `O=C(Cn1c(=O)nc(-c2ccccc2)c2cc(Cl)ccc21)N1CCN(c2ccc(F)cc2)CC1`, for which the “activity change, negative = inhibition” value is inactive: -1.47%.

Turning to `COCCNC(=O)c1cnc2sc(N3CCC(C)CC3)nn2c1=O`, the “activity change, negative = inhibition” value was inactive: -2.98%. As to `CCOC(=O)C1CCN(C(c2cccc(F)c2)c2c(O)cc(C)n(CCOC)c2=O)CC1` (stereo not drawn), the molecule was called inactive. With `CCN(C(=O)c1cnc2ccc(C)cn2c1=O)c1ccccc1`, the “activity change, negative = inhibition” value was inactive: 2.06%. Turning to `COC(=O)C1=C(C)NC(C)=C(C(=O)OC(C)C)C1c1cccc2nonc12` (stereo not drawn), the “activity change, negative = inhibition” value is inactive: 21%. Still for that read-out and setting: as for `Cc1cccc(CNC(=O)CS(=O)(=O)c2cccc3nsnc23)c1`, the figure is inactive: 1.55%. Consider `COc1cc(NC(=O)Cn2cnc(S(=O)(=O)N3CCCC3)c2)cc(OC)c1OC`, for which the outcome was inactive. On to `COc1ccc(Cl)cc1NC(=O)c1nn(-c2ccc(C)cc2)c(=O)n(C)c1=O`, for which the “activity change, negative = inhibition” value was inactive: 6.02%.

As to `CCOC(=O)c1c(C)[nH]c(C)c1S(=O)(=O)N1CCCC(C(=O)N2CCN(c3cccc(C)c3C)CC2)C1` (stereo not drawn), the outcome was inactive.

As for `O=C(Nc1ccc2c(c1)CCCN2C(=O)c1cccs1)c1ccccc1Cl`, the “activity change, negative = inhibition” value is inactive: -6.6%.

Consider `N#C[C@H]1C[C@H]2C[C@@H]2N1C(=O)[C@@H](N)C12CC3CC(CC(O)(C3)C1)C2`, for which the “activity change, negative = inhibition” value is inactive: 0.669%.

On to `Clc1ccc(-c2noc3ncnc(NCCc4ccccc4)c23)cc1`, for which the molecule was classed as inactive. Turning to `CCc1ccc(NC(=O)C2CCN(c3nn4c(=O)cc(C)nc4s3)CC2)cc1`, the “activity change, negative = inhibition” value is inactive: 13.9%. Still for that read-out and setting: as for `CN1N=C(N)c2cn([C@@H]3O[C@H](COP(=O)(O)O)[C@@H](O)[C@@H]3O)c3ncnc1c23`, the figure is inactive: 2.26%; as for `Cc1cc(C)cc(NS(=O)(=O)c2cc3c(cc2C)NC(=O)CO3)c1`, inactive: -8.52%. For the molecule `CCCCn1cc2c(c1-c1ccc(Cl)cc1)c(=O)n(C)c(=O)n2C`, the “activity change, negative = inhibition” value was inactive: 7.14%.
